The RNAGym collection of RNA variant scans (doi:10.1093/nar/gkz1192)
Read counts are not given, so values of variants with three or more changes are uncertain.

B1: CPEB3 Ribozyme (parent)
chain: UAACAGGGGGCCACAGCAGAAGCGUUCACGUCGCAGCCCCUGUCAGAUUCUGGUGAAUCUGCGAAUUCUGCUGUAUAUCUC

Variants of: B1
Test: self-cleavage, relative activity (ratio to wild type); higher = more cleavage; in vitro, sequencing
In short: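 Relative activity compares each variant's cleaved/total read fraction with that of the unmutated ribozyme. To get these fractions, barcoded CPEB3 ribozyme libraries from rounds of error-prone PCR were transcribed with T7 RNA polymerase for 5 hours at 37°C and then given 15 min of DNase I treatment before EDTA was added. The RNAs were reverse transcribed with template switching and sequenced on Illumina, and DNA sequencing linked barcodes to variants. A minimum of 5 reads applied, and three batches were averaged.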

Row | Variant | self-cleavage
1 | A3G U41C U48C U51A | 0.27
2 | A3G U41C U51A | 1.06
3 | A3G U41C U54C | 0.97
4 | A3G U41C U58C | 0.75
5 | A3G U41C U69A | 0.82
6 | A3G U41C U69C U72A | 0.43
7 | A3G U41C U74A | 1.08
8 | A3G U41C U74C | 1.11
9 | A3G U41C U78C | 1.11
10 | A3G U43A A45G A47U | 0.54
11 | A3G U43A A47G U67C | 0.33
12 | A3G U43A U48C A56G | 0.43
13 | A3G U43A U72A | 0.59
14 | A3G U43C A45U | 0.42
15 | A3G U43C G52A G53U A56G | 0.83
16 | A3G U43C U49C U54C U60A | 0.22
17 | A3G U43C U54C | 0.33
18 | A3G U43C U69A | 0.45
19 | A3G U43C U72A | 0.29
20 | A3G U48C A56G | 0.45
21 | A3G U48C A57G | 0.95
22 | A3G U48C A57G U66A | 1.12
23 | A3G U48C C62G | 0.16
24 | A3G U48C G52U A56G U78C U80C | 0.68

Row | Variant | self-cleavage
25 | A3G U48C U49C | 0.46
26 | A3G U48C U51C U69C U74C | 0.24
27 | A3G U48C U58A U78G | 0.11
28 | A3G U48C U66G | 0.25
29 | A3G U48C U69C U72C U78A | 0.14
30 | A3G U48C U72C U74A | 1.13
31 | A3G U48C U80C | 0.75
32 | A3G U49A A57G G63A | 0.49
33 | A3G U49C A56G | 0.94
34 | A3G U49C A57G | 0.19
35 | A3G U49C A57G A64G | 0.27
36 | A3G U49C U54C U66C U76C U80C | 0.37
37 | A3G U49C U54C U67C | 0.42
38 | A3G U49C U60C U67C U76C | 0.08
39 | A3G U49C U60G | 0.14
40 | A3G U49C U67A | 0.5
41 | A3G U49C U72G | 0.42
42 | A3G U49C U78C | 0.81
43 | A3G U51A A56G U58A | 0.27
44 | A3G U51A A56U | 0.7
45 | A3G U51A A57G | 0.5
46 | A3G U51A A57G U58A | 0.16
47 | A3G U51A A75G U80C | 0.62
48 | A3G U51A G52U U60A U66C | 0.35

Row | Variant | self-cleavage
49 | A3G U51A U54C | 1
50 | A3G U51A U58C | 0.32
51 | A3G U51A U69C | 0.83
52 | A3G U51A U76C | 1.17
53 | A3G U51C A56U U78C | 0.73
54 | A3G U51C A57G | 1.01
55 | A3G U51C U54A | 0.91
56 | A3G U51C U54A C68G A75U | 1.18
57 | A3G U51C U54C U80C | 1
58 | A3G U51C U66G | 0.61
59 | A3G U51C U67C | 0.46
60 | A3G U54A A56G U67A | 0.23
61 | A3G U54A A64U U69A | 0.53
62 | A3G U54A U60G | 0.46
63 | A3G U54A U74A | 1.22
64 | A3G U54C A56G U78C | 0.37
65 | A3G U54C A57G U72A U78A U80A | 1.15
66 | A3G U54C G63A | 1
67 | A3G U54C U58A U67A U76C | 0.14
68 | A3G U54C U58C A75G | 0.59
69 | A3G U54G A65G | 0.38
70 | A3G U58A A64U C68A | 0.14
71 | A3G U58A U60C U69A A75G | 0.27
72 | A3G U58C G73U U78C | 1.18

Row | Variant | self-cleavage
73 | A3G U58C U60C A64G U66C | 0.32
74 | A3G U58C U67A U72C | 0.2
75 | A3G U60A U69C | 0.3
76 | A3G U60A U78C | 0.72
77 | A3G U60A U78G | 0.81
78 | A3G U60C A65U | 0.24
79 | A3G U60C A75U | 0.45
80 | A3G U60C G63A | 0.5
81 | A3G U60C U66C | 0.4
82 | A3G U60C U72A | 0.52
83 | A3G U60G U76C U80A | 0.65
84 | A3G U66A A77G U80A | 0.78
85 | A3G U66C C71U A77U | 0.12
86 | A3G U66C U67A U72C A75G U78C | 0.27
87 | A3G U66G U72G | 0.34
88 | A3G U67A A77G | 0.49
89 | A3G U67C U69A | 0.25
90 | A3G U67C U72A | 0.29
91 | A3G U67C U72C A75G | 0.35
92 | A3G U67G A75G | 0.35
93 | A3G U69A U72C | 0.51
94 | A3G U69C U80C | 0.5
95 | A3G U72A A75U | 0.96
96 | A3G U72C A75C U78A | 0.83

Row | Variant | self-cleavage
97 | A3G U74C U76C | 1.18
98 | A3U A5C A65G | 0.37
99 | A3U A5G A13U A21G C23G A28G | 0.61
100 | A3U A5G A13U U60C | 0.53
101 | A3U A5G A15G U66C | 0.41
102 | A3U A5G A35G U48C | 1.11
103 | A3U A5G A35U U60C A64G U74C U76C | 0.16
104 | A3U A5G A47G U49C | 0.42
105 | A3U A5G C11A A18U C38G | 0.1
106 | A3U A5G C12U U31C U43A | 0.7
107 | A3U A5G C23U G70A U72A U78C U80C | 0.04
108 | A3U A5G G6A A35G C40U A56U U78C | 0.17
109 | A3U A5G G10C U41G | 0.22
110 | A3U A5G G30C U41C U48C A56G | 0.09
111 | A3U A5G G63A U78C | 0.53
112 | A3U A5G U25C A28G U41C A75G | 0.1
113 | A3U A5G U25C U26C | 0.47
114 | A3U A5G U31A U66C U74C | 0.37
115 | A3U A5G U48C U49C U60C | 0.15
116 | A3U A5G U49C U67G | 0.6
117 | A3U A5G U60A U69C | 0.44
118 | A3U A5U A15G U41C U54C A65G C81U | 0.58
119 | A3U A5U A18U U26C | 0.26
120 | A3U A5U A20G U48C U60C G63C A64U | 0.26

Row | Variant | self-cleavage
121 | A3U A5U A21G U26C A28G G30A | 0.42
122 | A3U A5U A56G | 0.98
123 | A3U A5U G9A G73C | 0.66
124 | A3U A5U U25C G30C A56G C79A | 0.03
125 | A3U A5U U26C U41A U60C | 0.34
126 | A3U A5U U31C | 1.14
127 | A3U A5U U41A A65C | 0.25
128 | A3U A5U U43A A57G A65G | 0.28
129 | A3U A5U U43C A56G | 0.62
130 | A3U A5U U51A U60C | 0.66
131 | A3U A13C U41C U66C | 0.47
132 | A3U A13G A20U G22A C38U U69C A75G | 0
133 | A3U A13G A28G | 0.6
134 | A3U A13G A35G A45G U80G | 0.85
135 | A3U A13G A45G A57G C62A A65G A75G | 0.15
136 | A3U A13G A47G | 0.94
137 | A3U A13G A56U | 0.58
138 | A3U A13G A57G | 0.86
139 | A3U A13G C17G A20G U26C U58C | 0.36
140 | A3U A13G C32A A45U U51C U54C | 0.19
141 | A3U A13G C68U | 0.86
142 | A3U A13G U25A A35G A56C U58A | 0.07
143 | A3U A13G U26A U43G | 0.26
144 | A3U A13G U43C A45G | 0.4

Row | Variant | self-cleavage
145 | A3U A13G U51A G53U | 1.12
146 | A3U A13U A15G A45G U54C A56G U66C | 0.3
147 | A3U A13U A15G U49A | 0.48
148 | A3U A13U A18U A56G U60C U67C U78A | 0.23
149 | A3U A13U A28G C79A | 1.12
150 | A3U A13U C17U U60C U67A | 0.17
151 | A3U A13U C23A C44G U49C U51C | 0.16
152 | A3U A13U G22U G73A A75U U78C | 0.73
153 | A3U A13U G24A U69A | 0.3
154 | A3U A13U G30A A35U U54A U60A C71A | 0.11
155 | A3U A13U G33A U51C C62U A77C | 0.16
156 | A3U A13U U60C C68G | 0.46
157 | A3U A15C A20G A64G | 0.56
158 | A3U A15C G19A U25C U49C U54A U69A | 0.08
159 | A3U A15C U48C U67C | 0.39
160 | A3U A15G A18G A21G C37G | 0.17
161 | A3U A15G A20G U41C A64G | 0.17
162 | A3U A15G A20U C40G | 0.14
163 | A3U A15G A35U A64G U67C | 0.49
164 | A3U A15G A47G | 0.95
165 | A3U A15G A47G U51A A64U | 0.3
166 | A3U A15G A47U U48C U66G | 0.19
167 | A3U A15G A57G A64U U80C | 0.17
